Experimental data published in PubChem BioAssay AID1745853 (National Center for Advancing Translational Sciences (NCATS), 2022).
Some of the results follow. Shown are side measurements of this screen, not its main read-out; they come without a call.

Experiments:
Assay in all cases: Primary Screen for Target Class Profiling of Small Molecule Inhibitors of Methyltransferases
[1] = target: Glycine N-methyltransferase (Homo sapiens) (UniProt Q14749); details: purified enzyme, MTase-Glo SAH luminescence; measured here: GNMT inhibition; at 40 µM; stronger effect = lower value
How it was run: (§1)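 Each enzyme was reacted with SAM and its substrate, with compounds tested once at 40 uM; SAH formed was read by MTase-Glo luminescence.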

[2] = target: Guanidinoacetate N-methyltransferase (Homo sapiens) (UniProt Q14353); details: purified enzyme, MTase-Glo SAH luminescence; measured here: GAMT inhibition; at 40 µM; stronger effect = lower value
How it was run: as §1

[3] = target: Histamine N-methyltransferase (Homo sapiens) (UniProt P50135); details: purified enzyme, MTase-Glo SAH luminescence; measured here: HNMT inhibition; at 40 µM; stronger effect = lower value
How it was run: as §1

[4] = target: Nicotinamide N-methyltransferase (Homo sapiens) (UniProt P40261); details: purified enzyme, MTase-Glo SAH luminescence; measured here: NNMT inhibition; at 40 µM; stronger effect = lower value
How it was run: as §1

[5] = target: Phenylethanolamine N-methyltransferase (Homo sapiens) (UniProt P11086); details: purified enzyme, MTase-Glo SAH luminescence; measured here: PNMT inhibition; at 40 µM; stronger effect = lower value
How it was run: as §1
% is set by controls: 0 for no effect and ±100 for the full control effect.

| Compound | activity change, negative = inhibition [1] [%] | activity change, negative = inhibition [2] [%] | activity change, negative = inhibition [3] [%] | activity change, negative = inhibition [4] [%] | activity change, negative = inhibition [5] [%] |
| --- | --- | --- | --- | --- | --- |
| O=C(Cn1nc2n(CCc3ccccc3)c(=O)c3ccccc3n2c1=O)Nc1ccc(Cl)cc1 | 1.79 | 0.105 | 3.13 | 3.55 | 1.63 |
| Cc1noc(C)c1CCNC(=O)c1ncn2c1C(=O)N(C1CC1)C(C)(C(=O)NCc1ccccc1Cl)C2 (configuration not stated) | 1.28 | 2.5 | 14.7 | 2.68 | 10.5 |
| COCC(=O)N[C@H]1C[C@@H](CO)N(Cc2sccc2C)C1 | -2.72 | -0.017 | 0.812 | 0.292 | -20.6 |
| Cc1cccc(NC(=O)Cn2c(=O)oc3cc(S(=O)(=O)N4CC(C)CC(C)C4)ccc32)c1C (configuration not stated) | -7.92 | 2 | -3 | -0.681 | -6.78 |
| CC(C)n1c(=O)c2ccc(C(=O)NC3CCCCC3)cc2n2c(=O)n(CC(=O)NC3CCCC3)nc12 | 6.01 | 0 | 9.35 | 6.82 | 6.7 |
| C=C1CC[C@@H]2[C@](C)(CO[C@@H]3O[C@H](CO)[C@@H](O)[C@H](O)[C@H]3O)CCC[C@@]2(C)[C@@H]1CCC1=CCOC1=O | 0 | 2.35 | 6.73 | -12 | 3.88 |
| COC(=O)C1=C2Nc3ccccc3C23CCN2CCCC(C(C)O)(C1)C23 (configuration not stated) | -2.79 | -1.68 | -63.3 | -12.2 | -11.1 |
| COc1ccc(-c2nnc3n(CCc4ccccc4)c(=O)c4ccccc4n23)cc1 | -6 | 0 | -0.031 | -3.36 | -7.23 |
| COc1c/c(=C2\C=c3ccccc3=N2)[nH]/c1=C\c1[nH]c(C)cc1C | -31.8 | – | -30 | – | – |
| CCc1cc2c(cc3n2CC(C)(C(=O)NC2CCC(C)CC2)N(c2cccc(C)c2C)C3=O)s1 (configuration not stated) | 5.53 | 1.16 | 6.37 | 13.7 | 4.79 |
| CCOC(=O)c1cc2n(n1)CC(C)(C(=O)NC1CCCCC1)N(Cc1ccccc1F)C2=O (configuration not stated) | 4.57 | 4.48 | -1.95 | 2.21 | 3.89 |
| O=C(CCn1ccc2cc(S(=O)(=O)N3CCCCC3)ccc21)NCCC1=CCCCC1 | 0.201 | 2.56 | 0.404 | -8.66 | -2.27 |
| CC(C)NC(=O)c1cc2n(n1)CC(C)(C(=O)NC1CCCCCC1)N(C)C2=O (configuration not stated) | 7.14 | 3.86 | 11.3 | 15 | 4.54 |
| CN1C(=O)c2cc(C(=O)NCc3cccc(Br)c3)nn2CC1(C)C(=O)NCc1ccc(F)cc1 (configuration not stated) | -3.82 | 0.042 | -7.26 | -3.75 | -5.26 |
| COc1cccc(Cn2nc3n(C)c(=O)c4ccc(C(=O)NCC(C)C)cc4n3c2=O)c1 | 3.93 | 0.607 | 11 | -1.34 | 4.9 |
| O=S(=O)(c1ccccc1)N1CC(c2nc(Cc3cccnc3)no2)C1 | -0.145 | -1.62 | 3.17 | -2.99 | 1.02 |
| COC(=O)c1ncn2c1C(=O)N(c1cccc(C)c1C)C(C)(C(=O)NCc1ccccc1OC)C2 (configuration not stated) | -1.86 | 0 | 0.838 | -0.172 | -2.28 |
| Cc1cc(F)ccc1NC(=O)Cn1c(=O)oc2cc(S(=O)(=O)N3CCCC3)ccc21 | 7.16 | 0 | 9.19 | 19.2 | 4.98 |
| O=C(CCc1nnn2c1CN(C(=O)COc1ccc(F)cc1)CC2)N1CCCC1 | -2.25 | -0.432 | -0.724 | -2.07 | -4.63 |
| CCC(C)NC(=O)N1CCn2nnc(CCC(=O)N3CCOCC3)c2C1 (configuration not stated) | -0.428 | 1.1 | 1.93 | -0.176 | 0.569 |
| CCN(CC)CC[C@H]1CN(C(=O)C2CC2)CC[C@H]1CC(=O)O | -0.76 | -0.813 | 2.02 | -0.559 | 0.416 |
| CC(C)OCCCNc1nc2c(-c3ccc(Cl)cc3)nnn2c2ccccc12 | 2.5 | 12.5 | 8.28 | 12.4 | 2.81 |
| NC(N)=NC(=O)c1nc(Cl)c(N2CCCCCC2)nc1N | -2.28 | 7.98 | -6.07 | -9.89 | -1.56 |
| CNC(=O)N1C[C@@H](CN(C)C)[C@H](NC(=O)c2ccsc2)C1 | -4.58 | -1.83 | 1.71 | -1.68 | 0.353 |
| CC(=O)O[C@H](C[C@@H](C)[C@H]1C(=O)[C@H](O)[C@@]2(C)[C@@H]3CCC4C(C)(C)[C@@H](O[C@@H]5OC[C@H](O)[C@H](O)[C@H]5O)CC[C@@]45C[C@@]35CC[C@]12C)[C@@H]1OC1(C)C (some centres not stated) | -4.78 | -4.07 | 0.287 | -22.5 | -3.13 |
| Cc1cnc(C2CCC2)n1CCNC(=O)c1nccn1C | -5.45 | -7.74 | -6.26 | -14.9 | 10.3 |
| O=C(Cc1cccc(Cl)c1)NC1CCN(Cc2ccc(-c3ccsc3)cc2)C1 (configuration not stated) | -11.6 | -9.86 | -16 | -25.1 | -28.4 |
| CN(C)CC1(O)CCC2(CCN(C(=O)c3cccn3C)CC2)CC1 | -80.5 | -5.92 | -5.29 | -7.03 | 8.09 |
| CC(C)(Cc1ccc(F)cc1)NC(=O)CC1C(=O)NCCN1Cc1ccoc1 (configuration not stated) | -9.78 | -7.26 | -1.28 | -12.5 | -13.8 |
| O=c1cc(-c2ccccc2)c2ccc(OCc3ccccc3)cc2o1 | -1.83 | 0 | 7.57 | 3.89 | -1.91 |
